The values that follow come from the supplement of paper PMC9588766.

Where a name gives a salt, the structure may show the parent alone. ± gives the standard deviation of the averaged measurements. Whole data set: some 2,000 compounds, median “cell viability relative to DMSO control (compound alone)” near 0.98, cut for the lowest 2% near 0.23. The list shows a part of the results.

The test relates to PDC-DUC18828. Description: cell viability relative to DMSO control (compound alone) (fraction); PDC-DUC18828 is a patient-derived cholangiocarcinoma cell line; higher = less growth inhibition. To be noted: 1 µM; 72 h. Here is the method: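 Selleck Bioactive library screen in the patient-derived FGFR2-G3BP2 fusion-positive ICC cell line PDC-DUC18828 (500 cells/well). Each compound was tested at 1 uM alone, in triplicate, for 72 h. Viability was read by CellTiter-Glo and normalised to plate DMSO controls.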
Compound `Nc1nc(N)nc(-c2cc(Cl)ccc2Cl)n1` [Irsogladine] came in with a cell viability of 1.03 ± 0.079.

`CCN1CCCC1CNC(=O)c1cc(S(=O)(=O)CC)c(N)cc1OC` (stereo unspecified) [Amisulpride] registered a cell viability of 0.979 ± 0.034.

`CNC(=O)CN1CCC(Oc2cc3c(Nc4cccc(Cl)c4F)ncnc3cc2OC)CC1` [AZD8931 (Sapitinib)] showed a cell viability of 0.992 ± 0.013.

In the case of `Nc1ncnc2c1c(-c1cccc(OCc3ccccc3)c1)cn2C1CC(CN2CCCC2)C1` (stereo unspecified), the cell viability amounted to 0.919 ± 0.046.

Regarding `O=C(Nc1cccc(Cl)c1)Nc1ncc(CCNc2ncnc3ccsc23)s1` [SNS-314 Mesylate], the cell viability turned out to be 0.696 ± 0.05.

`CCc1c(C(=O)NCCc2ccc(N3CCCCC3)cc2)[nH]c2ccc(Cl)cc12` showed a cell viability of 1.05 ± 0.043.

`CN1CCN(c2ccc(C(=O)Nc3n[nH]c4ccc(Cc5cc(F)cc(F)c5)cc34)c(NC3CCOCC3)c2)CC1` [Entrectinib (RXDX-101)] displayed a cell viability of 0.887 ± 0.039.

In the case of `S=c1[nH]cnc2nc[nH]c12` [Mercaptopurine (6-MP)], the cell viability was found to be 0.928 ± 0.056.

Compound `NS(=O)(=O)c1ccc(NC(=O)Nc2ccc(F)cc2)cc1` had a cell viability of 1 ± 0.04.

In turn, `Cc1cccc(-c2[nH]ncc2-c2ccc3ncccc3n2)n1` had a cell viability of 1.01 ± 0.05.

Take `O=C(NCCCNc1nc(Nc2cccc(NC(=O)N3CCCC3)c2)ncc1I)c1cccs1`: the cell viability was 0.701 ± 0.025.

The compound `CN(Cc1ccc(C(C)(C)C)cc1)Cc1cccc2ccccc12` [Butenafine HCl] returned a cell viability of 1.01 ± 0.046.

The compound `Cc1nc2c(O)cccc2c(=O)[nH]1` yielded a cell viability of 0.93 ± 0.019.

With `O=C(NNc1ccccc1)c1ccncc1`, the cell viability stood at 0.997 ± 0.029.

Turning to `CC(C)n1cnc2c(NCCc3ccc(O)cc3)nc(-c3csc4ccccc34)nc21` [StemRegenin 1 (SR1)], the cell viability came out at 1.01 ± 0.025.

As for `Cc1cc(F)c(Nc2ncnc3cc(OCc4ccccc4)ccc23)cc1O`, the cell viability was determined as 0.949 ± 0.054.

Regarding `O=c1[nH]c(=O)n([C@H]2C[C@H](O)[C@@H](CO)O2)cc1C(F)(F)F` [Trifluridine], the cell viability amounted to 0.997 ± 0.025.

`Cn1cncc1[C@@](N)(c1ccc(Cl)cc1)c1ccc2c(c1)c(-c1cccc(Cl)c1)cc(=O)n2C` [Tipifarnib] displayed a cell viability of 0.79 ± 0.032.

Regarding `Cc1cc(C#N)cc(C)c1Oc1nc(Nc2ccc(C#N)cc2)nc(N)c1Br` [Etravirine (TMC125)], the cell viability came out at 0.935 ± 0.057.

On to `NC1=NCC2c3ccccc3Cc3ccccc3N12` (stereo unspecified) [Epinastine HCl], for which the cell viability is 0.989 ± 0.06.

With `NC(=O)N1c2ccccc2CC(=O)c2ccccc21` [Oxcarbazepine], the cell viability was 1.02 ± 0.06.

Regarding `Oc1nc(-c2ccc(C(F)(F)F)cc2)nc2c1CSCC2`, the cell viability turned out to be 0.94 ± 0.017.

For `Cc1nc2ccc(NC(=O)Nc3ccnc4cccnc34)cc2o1`, the cell viability was found to be 0.9552 ± 0.0015.

`CN(C)c1ccc(-c2nc3ncc(Cl)c(N4CCN(CC(=O)Nc5nccs5)CC4)c3[nH]2)cc1` had a cell viability of 0.946 ± 0.046.

Compound `O=C1N=C(O)NC1(c1ccccc1)c1ccccc1` [Phenytoin sodium] showed a cell viability of 0.942 ± 0.05.

The compound `O=C1Nc2ccc(I)cc2/C1=C/c1cc(Br)c(O)c(Br)c1` yielded a cell viability of 0.978 ± 0.022.

In turn, `CN(C)c1cc(NC(=O)CNC(C)(C)C)c(O)c2c1C[C@H]1C[C@H]3[C@H](N(C)C)C(O)=C(C(N)=O)C(=O)[C@@]3(O)C(O)=C1C2=O` [Tigecycline] yielded a cell viability of 1.01 ± 0.061.

Consider `CCNc1nc(Nc2cc(F)c(C(=O)N3CCOCC3)cc2OC)ncc1C(F)(F)F`, for which the cell viability amounted to 0.915 ± 0.039.

In the case of `COc1cc(NS(=O)(=O)c2ccc(N)cc2)nc(OC)n1` [Sulphadimethoxine], the cell viability is 1.06 ± 0.035.

In turn, `CC1(C)O[C@@H]2[C@@H](CO[C@@]3(COS(N)(=O)=O)OC(C)(C)O[C@@H]23)O1` [Topiramate] had a cell viability of 1.03 ± 0.026.

On to `O=C(c1ccc(F)cc1)N1CCC[C@H](c2nc(-c3ccc(F)cc3)no2)C1`, for which the cell viability stood at 1.06 ± 0.064.

For `Cc1ccc(Cl)cc1N(CC(=O)Nc1c(F)cccc1F)S(C)(=O)=O`, the cell viability was 0.998 ± 0.033.

In the case of `Cc1ccc2nc(NCCN)c3ncc(C)n3c2c1`, the cell viability amounted to 1.11 ± 0.053.

Regarding `Cc1c(NC(=O)OC[C@@H]2COCCN2)cn2ncnc(Nc3ccc4c(cnn4Cc4cccc(F)c4)c3)c12`, the cell viability came to 0.925 ± 0.021.

Compound `COc1ccc(C[C@H](NC(=O)[C@H](C)NC(=O)CN2CCOCC2)C(=O)N[C@@H](Cc2ccccc2)C(=O)[C@@]2(C)CO2)cc1` displayed a cell viability of 0.0203 ± 0.0028.

`CC(C[N+](C)(C)C)OC(N)=O` (stereo unspecified) [Bethanechol chloride] registered a cell viability of 0.904 ± 0.077.

`NS(=O)(=O)Cc1noc2ccccc12` [Zonisamide]: the cell viability was 0.98 ± 0.021.

As for `C=CCc1ccc(O)c(-c2cc(CC=C)ccc2O)c1` [Magnolol], the cell viability was determined as 1.02 ± 0.037.

`COc1ccc2c(c1)C(=O)N(CCc1ccc(S(=O)(=O)NC(=O)NC3CCCCC3)cc1)C(=O)C2(C)C` [Gliquidone] showed a cell viability of 0.95 ± 0.071.

`COc1ccc([C@@H]2Sc3ccccc3N(CCN(C)C)C(=O)[C@@H]2OC(C)=O)cc1` [Diltiazem HCl] displayed a cell viability of 0.967 ± 0.043.

For `Cc1cn([C@H]2C[C@H](N=[N+]=[N-])[C@@H](CO)O2)c(=O)[nH]c1=O` [Zidovudine], the cell viability turned out to be 1.02 ± 0.015.

Compound `CC(=O)c1cc([N+](=O)[O-])c(Sc2ccc(F)cc2F)s1` registered a cell viability of 0.969 ± 0.04.

Turning to `CCNC(=O)c1noc(-c2cc(C(C)C)c(O)cc2O)c1-c1ccc(CN2CCOCC2)cc1`, the cell viability stood at 0.342 ± 0.013.

`CC(=O)C1=C(O)C=C2Oc3c(C(C)=O)c(O)c(C)c(O)c3C2(C)C1=O` (single isomer, unassigned; (+)) [(+)-Usniacin] had a cell viability of 0.9727 ± 0.0077.

For the compound `CNCc1ccc(-c2[nH]c3cc(F)cc4c3c2CCNC4=O)cc1`, the cell viability is 0.907 ± 0.05.

Consider `CCCNC(C)C(=O)Nc1c(C)csc1C(=O)OC` (stereo unspecified) [Articaine HCl], for which the cell viability was 0.967 ± 0.03.

On to `COc1ccc(CCc2nc3cc(-c4c(C)noc4C)ccc3n2C[C@H](C)N2CCOCC2)cc1Cl`, for which the cell viability is 1.03 ± 0.053.

Compound `O=C(O)c1cc2cccc([N+](=O)[O-])c2[nH]1` returned a cell viability of 1.02 ± 0.051.

The compound `O=C(O)c1ccc(-n2nc(-c3ccccc3O)nc2-c2ccccc2O)cc1` [Deferasirox] came in with a cell viability of 0.941 ± 0.034.

`CN1C(C(=O)Nc2ccccn2)=C(O)c2ccccc2S1(=O)=O` [Piroxicam]: the cell viability was found to be 1.08 ± 0.027.

Turning to `COc1c(C)c2c(c(O)c1C/C=C(\C)CCC(=O)OCCN1CCOCC1)C(=O)OC2` [Mycophenolate Mofetil], the cell viability amounted to 0.555 ± 0.04.

With `COCCOC(=O)C1=C(C)NC(C)=C(C(=O)OC(C)C)C1c1cccc([N+](=O)[O-])c1` (stereo unspecified) [Nimodipine], the cell viability is 0.943 ± 0.06.

Compound `NCCS` [Cysteamine HCl] came in with a cell viability of 1.04 ± 0.047.

For the compound `O=C(NCc1cccc(O)c1)Nc1nc(-c2ccncc2)cs1`, the cell viability was 0.858 ± 0.014.

`COC(=O)CCc1ccc(OCC(O)CNC(C)C)cc1` (stereo unspecified) [Esmolol HCl]: the cell viability was 0.964 ± 0.013.

With `CC1(C)[C@@H](O)CC[C@]2(C)[C@H]3C(=O)C=C4[C@@H]5C[C@@](C)(C(=O)O)CC[C@]5(C)CC[C@@]4(C)[C@]3(C)CC[C@@H]12` [Enoxolone], the cell viability was found to be 0.992 ± 0.053.
